Experimental findings from PMC9911399, “Two distinct binding modes provide the RNA-binding protein RbFox with extraordinary sequence specificity” are described below.

Where a chain is given by its changes, count along the chain named. The list shows a part of the results.

T1: RBFOX1 RRM RbFoxmut (Fox-RRM*) (Homo sapiens, UniProt Q9NWB1 109-208, R118D;E147R;N151S;E152T)
T1 sequence: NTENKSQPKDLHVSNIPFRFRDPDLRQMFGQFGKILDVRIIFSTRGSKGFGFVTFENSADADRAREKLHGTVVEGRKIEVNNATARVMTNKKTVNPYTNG

B1: CGCCAAG (DNA:RNA)
RNA: GGGAGACCGGAAUUCAGAUUGUCCCGCCAAGUUAAAUCCCGUCGUAGCCACCA
DNA 1: CAATCTGAATTCCGGTCTCCC
DNA 2: TGGTGGCTACGACGGGATT
B2: CGCGCCC (DNA:RNA)
RNA: B1 RNA with C28G, A29C, A30C, G31C
DNA 1: CAATCTGAATTCCGGTCTCCC
DNA 2: TGGTGGCTACGACGGGATT
B3: AGAAGGA (DNA:RNA)
RNA: B1 RNA with C25A, C27A, C28A, A29G, A30G, G31A
DNA 1: CAATCTGAATTCCGGTCTCCC
DNA 2: TGGTGGCTACGACGGGATT
B4: GCUGAGU (DNA:RNA)
RNA: B1 RNA with C25G, G26C, C27U, C28G, A30G, G31U
DNA 1: CAATCTGAATTCCGGTCTCCC
DNA 2: TGGTGGCTACGACGGGATT
B5: GCAUUUU (DNA:RNA)
RNA: GGGAGACCGGAAUUCAGAUUGUCCGCAUUUUUUAAAUCCCGUCGUAGCCACCA
DNA 1: CAATCTGAATTCCGGTCTCCC
DNA 2: TGGTGGCTACGACGGGATT
B6: AUAGCAG (DNA:RNA)
RNA: B1 RNA with C25A, G26U, C27A, C28G, A29C
DNA 1: CAATCTGAATTCCGGTCTCCC
DNA 2: TGGTGGCTACGACGGGATT
B7: ACAUACC (DNA:RNA)
RNA: B5 RNA with G25A, U29A, U30C, U31C
DNA 1: CAATCTGAATTCCGGTCTCCC
DNA 2: TGGTGGCTACGACGGGATT
B8: CCUAAGU (DNA:RNA)
RNA: B1 RNA with G26C, C27U, C28A, A30G, G31U
DNA 1: CAATCTGAATTCCGGTCTCCC
DNA 2: TGGTGGCTACGACGGGATT
B9: GACAUGA (DNA:RNA)
RNA: B5 RNA with C26A, A27C, U28A, U30G, U31A
DNA 1: CAATCTGAATTCCGGTCTCCC
DNA 2: TGGTGGCTACGACGGGATT
B10: AGGGCAU (DNA:RNA)
RNA: B1 RNA with C25A, C27G, C28G, A29C, G31U
DNA 1: CAATCTGAATTCCGGTCTCCC
DNA 2: TGGTGGCTACGACGGGATT
B11: CCCAAUA (DNA:RNA)
RNA: B1 RNA with G26C, C28A, A30U, G31A
DNA 1: CAATCTGAATTCCGGTCTCCC
DNA 2: TGGTGGCTACGACGGGATT
B12: UGCUUUU (DNA:RNA)
RNA: B5 RNA with G25U, C26G, A27C
DNA 1: CAATCTGAATTCCGGTCTCCC
DNA 2: TGGTGGCTACGACGGGATT
B13: GACAGUU (DNA:RNA)
RNA: B5 RNA with C26A, A27C, U28A, U29G
DNA 1: CAATCTGAATTCCGGTCTCCC
DNA 2: TGGTGGCTACGACGGGATT
B14: UAAGACA (DNA:RNA)
RNA: B1 RNA with C25U, G26A, C27A, C28G, A30C, G31A
DNA 1: CAATCTGAATTCCGGTCTCCC
DNA 2: TGGTGGCTACGACGGGATT
B15: UCCUCUU (DNA:RNA)
RNA: B5 RNA with G25U, A27C, U29C
DNA 1: CAATCTGAATTCCGGTCTCCC
DNA 2: TGGTGGCTACGACGGGATT
B16: CACCAGA (DNA:RNA)
RNA: B1 RNA with G26A, A30G, G31A
DNA 1: CAATCTGAATTCCGGTCTCCC
DNA 2: TGGTGGCTACGACGGGATT
B17: CGAGAAA (DNA:RNA)
RNA: B1 RNA with C27A, C28G, G31A
DNA 1: CAATCTGAATTCCGGTCTCCC
DNA 2: TGGTGGCTACGACGGGATT
B18: CACACGG (DNA:RNA)
RNA: B1 RNA with G26A, C28A, A29C, A30G
DNA 1: CAATCTGAATTCCGGTCTCCC
DNA 2: TGGTGGCTACGACGGGATT
B19: GCACCUC (DNA:RNA)
RNA: B5 RNA with U28C, U29C, U31C
DNA 1: CAATCTGAATTCCGGTCTCCC
DNA 2: TGGTGGCTACGACGGGATT
B20: UAUGAAG (DNA:RNA)
RNA: B1 RNA with C25U, G26A, C27U, C28G
DNA 1: CAATCTGAATTCCGGTCTCCC
DNA 2: TGGTGGCTACGACGGGATT
B21: UGUGAUG (DNA:RNA)
RNA: B1 RNA with C25U, C27U, C28G, A30U
DNA 1: CAATCTGAATTCCGGTCTCCC
DNA 2: TGGTGGCTACGACGGGATT
B22: CUGAGCG (DNA:RNA)
RNA: B1 RNA with G26U, C27G, C28A, A29G, A30C
DNA 1: CAATCTGAATTCCGGTCTCCC
DNA 2: TGGTGGCTACGACGGGATT
B23: GGCCAGC (DNA:RNA)
RNA: B1 RNA with C25G, A30G, G31C
DNA 1: CAATCTGAATTCCGGTCTCCC
DNA 2: TGGTGGCTACGACGGGATT
B24: GCCAUCC (DNA:RNA)
RNA: B5 RNA with A27C, U28A, U30C, U31C
DNA 1: CAATCTGAATTCCGGTCTCCC
DNA 2: TGGTGGCTACGACGGGATT
B25: UAGCGUC (DNA:RNA)
RNA: B1 RNA with C25U, G26A, C27G, A29G, A30U, G31C
DNA 1: CAATCTGAATTCCGGTCTCCC
DNA 2: TGGTGGCTACGACGGGATT
B26: UAUUUGA (DNA:RNA)
RNA: B5 RNA with G25U, C26A, A27U, U30G, U31A
DNA 1: CAATCTGAATTCCGGTCTCCC
DNA 2: TGGTGGCTACGACGGGATT
B27: GUGUUUA (DNA:RNA)
RNA: B5 RNA with C26U, A27G, U31A
DNA 1: CAATCTGAATTCCGGTCTCCC
DNA 2: TGGTGGCTACGACGGGATT
B28: AUGUAAC (DNA:RNA)
RNA: B1 RNA with C25A, G26U, C27G, C28U, G31C
DNA 1: CAATCTGAATTCCGGTCTCCC
DNA 2: TGGTGGCTACGACGGGATT
B29: CUUACCU (DNA:RNA)
RNA: B1 RNA with G26U, C27U, C28A, A29C, A30C, G31U
DNA 1: CAATCTGAATTCCGGTCTCCC
DNA 2: TGGTGGCTACGACGGGATT
B30: UAACUAA (DNA:RNA)
RNA: B1 RNA with C25U, G26A, C27A, A29U, G31A
DNA 1: CAATCTGAATTCCGGTCTCCC
DNA 2: TGGTGGCTACGACGGGATT
B31: CCAGCAU (DNA:RNA)
RNA: B5 RNA with G25C, U28G, U29C, U30A
DNA 1: CAATCTGAATTCCGGTCTCCC
DNA 2: TGGTGGCTACGACGGGATT

For the test, the target named is T1, RBFOX1 RRM RbFoxmut (Fox-RRM*). In words: EMSA; HiTS-Eq, 1 nM pool, 10 min; buffer printed only for the single-RNA assays: 10 mM Tris pH 7.5, 150 mM NaCl, 3.4 mM EDTA, 0.001% NP-40, 30 C. Particulars: tags: His6 N-terminal (pET28a); label: 5' 32P. A digest of the protocol: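 Purified RbFox RRM (wild type or mutant) was equilibrated for 10 min in 50 µL with 1 nM of a 5′-radiolabelled pool of RNA with 7 randomized nucleotides, its flanks annealed to DNA oligonucleotides, across increasing protein concentrations. Free RNA was separated by 8% native PAGE, excised, reverse-transcribed, PCR-barcoded and sequenced on an Illumina HiSeq 2500. Relative association constants came from read-count changes of each variant against the control reaction, normalised to the cognate motif.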
A general note: In EMSA bound probe runs differently from free probe, usually more slowly.
Consider B1, for which the binding signal was 0.0888 KA relative to UGCAUGU.

Regarding B2, the binding signal was 0.072 KA relative to UGCAUGU.

For the molecule B3, the binding signal is 0.0704 KA relative to UGCAUGU. In the case of B4, the binding signal was 0.123 KA relative to UGCAUGU. Next, B5: 0.113 KA relative to UGCAUGU.

As to B6, the binding signal is 0.103 KA relative to UGCAUGU.

B7: the binding signal is 0.0988 KA relative to UGCAUGU. Next, B8: 0.104 KA relative to UGCAUGU; B9: 0.0981 KA relative to UGCAUGU; B10: 0.088 KA relative to UGCAUGU. Next, B11: 0.105 KA relative to UGCAUGU; B12: 0.0948 KA relative to UGCAUGU. Turning to B13, the binding signal was 0.0724 KA relative to UGCAUGU. Turning to B14, the binding signal is 0.0672 KA relative to UGCAUGU. In the case of B15, the binding signal is 0.0932 KA relative to UGCAUGU. For B16 the value was 0.113 KA relative to UGCAUGU; for B17, 0.0733 KA relative to UGCAUGU; for B18, 0.106 KA relative to UGCAUGU. Take B19: the binding signal is 0.0567 KA relative to UGCAUGU. For B20 the value was 0.115 KA relative to UGCAUGU. For B21 the value was 1.01 KA relative to UGCAUGU; for B22, 0.151 KA relative to UGCAUGU; for B23, 0.0622 KA relative to UGCAUGU. Consider B24, for which the binding signal was 0.0576 KA relative to UGCAUGU.

On to B25, for which the binding signal was 0.0895 KA relative to UGCAUGU. Next, B26: 0.0703 KA relative to UGCAUGU.

Consider B27, for which the binding signal is 0.142 KA relative to UGCAUGU.

For the molecule B28, the binding signal was 0.139 KA relative to UGCAUGU. Next, B29: 0.0997 KA relative to UGCAUGU; B30: 0.0671 KA relative to UGCAUGU; B31: 0.14 KA relative to UGCAUGU.
